Experimental data reported in the supplement of paper PMC4604168 (melanoma cell lines).
Some of the results follow. Many values rest on one well or one pass, so single values are uncertain.

Legend:
Assay in all cases: cell count relative to DMSO control; melanoma cells; higher = more viable cells
Details in all cases: library dose: low library concentration; 72 h
WM115 = test system: WM115
WM1716 = test system: WM1716
WM1745 = test system: WM1745
WM3526 = test system: WM3526
WM3619 = test system: WM3619
WM451Lu = test system: WM451Lu
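Further: cell number obtained by counting DAPI-stained nuclei in high-throughput microscope images with image analysis software, screen run in 1,536-well plates.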

| Structure (SMILES) | cell count (WM115) [%] | cell count (WM1716) [%] | cell count (WM1745) [%] | cell count (WM3526) [%] | cell count (WM3619) [%] | cell count (WM451Lu) [%] |
| --- | --- | --- | --- | --- | --- | --- |
| Cn1c(Nc2ccc(C(F)(F)F)cc2)nc2cc(Oc3ccnc(-c4ncc(C(F)(F)F)[nH]4)c3)ccc21 + Cn1cc(/C=C2\C(=O)Nc3cccnc32)c2ccccc21 [GW441756] (first compound 0.08 µM, partner dose 0.4 µM) | 52.3 | 75.4 | 75.5 | 53 | 59.7 | 91 |
| Nc1cccc2c1CN(C1CCC(=O)NC1=O)C2=O (configuration not stated) [lenalidomide] + CCCCCCCCCCCC1=C(O)C(=O)C=C(O)C1=O [Embelin] (first compound 1 µM, partner dose 1.2 µM) | 100 | 105 | 97.5 | 100 | 115 | 109 |
| C#Cc1cccc(Nc2ncnc3cc(OCCOC)c(OCCOC)cc23)c1 [erlotinib] + Cc1cc(N2CCOCC2)cc2[nH]c(-c3c(NC[C@@H](O)c4cccc(Cl)c4)cc[nH]c3=O)nc12 [BMS536924] (first compound 0.8 µM, partner dose 0.2 µM) | 89.9 | 105 | 54.5 | 66.5 | 112 | 108 |
| C#Cc1cccc(Nc2ncnc3cc(OCCOC)c(OCCOC)cc23)c1 [erlotinib] + CC(C)(C)c1cnc(CSc2cnc(NC(=O)C3CCNCC3)s2)o1 [SNS-032] (first compound 0.8 µM, partner dose 0.01 µM) | 103 | 94.2 | 84.3 | 111 | 130 | 108 |
| Cn1c(Nc2ccc(C(F)(F)F)cc2)nc2cc(Oc3ccnc(-c4ncc(C(F)(F)F)[nH]4)c3)ccc21 + CN(NC(=O)CC(=O)NN(C)C(=S)c1ccccc1)C(=S)c1ccccc1 [STA4783] (first compound 0.08 µM, partner dose 0.006 µM) | 50.4 | 56.1 | 64.4 | 53.3 | 73.3 | 86.2 |
| O=C(CCCCCCC(=O)Nc1ccccc1)NO [vorinostat] + Oc1nc(-c2ccc(C(F)(F)F)cc2)nc2c1CSCC2 [XAV939] (first compound 0.08 µM, partner dose 2 µM) | 91.7 | 64.6 | 88.3 | 97.7 | 80.8 | 74.3 |
| O=C(CCCCCCC(=O)Nc1ccccc1)NO [vorinostat] + O=C1NC(=O)/C(=C/c2ccc(-c3ccc(F)cc3O)o2)S1 [AS252424] (first compound 0.08 µM, partner dose 1 µM) | 102 | 94.8 | 93.8 | 92.2 | 92.2 | 93.9 |
| OCc1c[nH]c2ccccc12 [Indole-3-carbinol] + CO[C@@H]1[C@H](N(C)C(=O)c2ccccc2)C[C@H]2O[C@]1(C)n1c3ccccc3c3c4c(c5c6ccccc6n2c5c31)C(=O)NC4 [Midostaurin] (first compound 0.8 µM, partner dose 0.08 µM) | 80.5 | 56.8 | 75.7 | 94.2 | 96.8 | 81.2 |
| Nc1cccc2c1CN(C1CCC(=O)NC1=O)C2=O (configuration not stated) [lenalidomide] + CN(C)S(=O)(=O)c1ccc2c(c1)/C(=C/c1cc3c([nH]1)CCCC3)C(=O)N2 [SU6656] (first compound 1 µM, partner dose 0.4 µM) | 64.2 | 97.6 | 83.4 | 94.7 | 96.8 | 117 |
| OCc1c[nH]c2ccccc12 [Indole-3-carbinol] + CCN(CC)CCCCNc1ncc2cc(-c3cc(OC)cc(OC)c3)c(NC(=O)NC(C)(C)C)nc2n1 [PD173074] (first compound 0.8 µM, partner dose 0.1 µM) | 105 | 114 | 95.8 | 93.3 | 109 | 94.8 |
| Clc1ccc(Nc2nnc(Cc3ccncc3)c3ccccc23)cc1 [vatalanib] + C=CCn1c(=O)c2cnc(Nc3ccc(N4CCN(C)CC4)cc3)nc2n1-c1cccc(C(C)(C)O)n1 [MK1775] (first compound 2 µM, partner dose 0.02 µM) | 81.5 | 81.2 | 77.2 | 105 | 76.2 | 113 |
| O=C(CCCCCCC(=O)Nc1ccccc1)NO [vorinostat] + Cn1cc(/C=C2\C(=O)Nc3cccnc32)c2ccccc21 [GW441756] (first compound 0.08 µM, partner dose 0.4 µM) | 107 | 137 | 103 | 97.8 | 96.3 | 104 |
| Clc1ccc(Nc2nnc(Cc3ccncc3)c3ccccc23)cc1 [vatalanib] + Cc1cc(N2CCOCC2)cc2[nH]c(-c3c(NC[C@@H](O)c4cccc(Cl)c4)cc[nH]c3=O)nc12 [BMS536924] (first compound 2 µM, partner dose 0.2 µM) | 100 | 99.5 | 84.9 | 94.5 | 91.5 | 88.3 |
| Nc1cccc2c1CN(C1CCC(=O)NC1=O)C2=O (configuration not stated) [lenalidomide] + COc1cc2c(Oc3ccc4[nH]c(C)cc4c3F)ncnc2cc1OCCCN1CCCC1 [cediranib] (first compound 1 µM, partner dose 0.4 µM) | 90.8 | 82.8 | 92 | 85.3 | 107 | 91.6 |
| COCC[n+]1c2c(n(Cc3cnccn3)c1C)C(=O)c1ccccc1C2=O + COc1cc(Nc2ncc(F)c(Nc3ccc4c(n3)NC(=O)C(C)(C)O4)n2)cc(OC)c1OC [Tamatinib] (first compound 0.0004 µM, partner dose 0.4 µM) | 97.2 | 94.9 | 69 | 85.5 | 98.1 | 77 |
| Nc1cccc2c1CN(C1CCC(=O)NC1=O)C2=O (configuration not stated) [lenalidomide] + NCC(=O)Nc1ccc(-n2nc(C(F)(F)F)cc2-c2ccc3c(ccc4ccccc43)c2)cc1 [OSU03012] (first compound 1 µM, partner dose 1 µM) | 87.9 | 90.2 | 86.2 | 47.7 | 112 | 71.7 |
| Nc1cccc2c1CN(C1CCC(=O)NC1=O)C2=O (configuration not stated) [lenalidomide] + OCCn1cc(-c2cnc3nnn(Cc4ccc5ncccc5c4)c3n2)cn1 [PF04217903] (first compound 1 µM, partner dose 1 µM) | 88.6 | 95.6 | 75.2 | 119 | 103 | 86 |
| COCC[n+]1c2c(n(Cc3cnccn3)c1C)C(=O)c1ccccc1C2=O + Cc1ccc(NC(=O)c2cccc(N(C)C)c2)cc1NC(=O)c1ccc(O)cc1 [ZM336372] (first compound 0.0004 µM, partner dose 2 µM) | 103 | 95.1 | 90.7 | 84.2 | 113 | 46.5 |
| C#Cc1cccc(Nc2ncnc3cc(OCCOC)c(OCCOC)cc23)c1 [erlotinib] + O=C(Nc1cccc(Cl)c1)Nc1ncc(CCNc2ncnc3ccsc23)s1 [SNS314] (first compound 0.8 µM, partner dose 0.0008 µM) | 85.7 | 87.4 | 80.7 | 92.3 | 81.6 | 72.2 |
| COCC[n+]1c2c(n(Cc3cnccn3)c1C)C(=O)c1ccccc1C2=O + CCCCCCCCCCCC1=C(O)C(=O)C=C(O)C1=O [Embelin] (first compound 0.0004 µM, partner dose 1.2 µM) | 96.8 | 97.5 | 93.9 | 91.7 | 120 | 95.6 |
| Cn1c(Nc2ccc(C(F)(F)F)cc2)nc2cc(Oc3ccnc(-c4ncc(C(F)(F)F)[nH]4)c3)ccc21 + O=C1NC(=O)/C(=C/c2ccc(-c3ccc(F)cc3O)o2)S1 [AS252424] (first compound 0.08 µM, partner dose 1 µM) | 48.3 | 76.6 | 48.5 | 50.4 | 41.8 | 95.7 |
| Nc1cccc2c1CN(C1CCC(=O)NC1=O)C2=O (configuration not stated) [lenalidomide] + COc1ccc(-c2ccc3c(N4CCOCC4)nc(N4C[C@@H](C)O[C@@H](C)C4)nc3n2)cc1CO [KU0063794] (first compound 1 µM, partner dose 0.02 µM) | 85.5 | 92.5 | 98.9 | 86.7 | 76.3 | 105 |
| Nc1cccc2c1CN(C1CCC(=O)NC1=O)C2=O (configuration not stated) [lenalidomide] + N#Cc1c(O)c2c(-c3ccc(-c4ccccc4O)cc3)csc2[nH]c1=O [A769662] (first compound 1 µM, partner dose 2 µM) | 83.1 | 87 | 87 | 92.5 | 98.5 | 84.8 |
| COCC[n+]1c2c(n(Cc3cnccn3)c1C)C(=O)c1ccccc1C2=O + CCN(CC)CCCCNc1ncc2cc(-c3cc(OC)cc(OC)c3)c(NC(=O)NC(C)(C)C)nc2n1 [PD173074] (first compound 0.0004 µM, partner dose 0.1 µM) | 94.5 | 98.8 | 89.9 | 112 | 92.3 | 80.6 |
| Clc1ccc(Nc2nnc(Cc3ccncc3)c3ccccc23)cc1 [vatalanib] + Cc1ccc(NC(=O)c2cccc(N(C)C)c2)cc1NC(=O)c1ccc(O)cc1 [ZM336372] (first compound 2 µM, partner dose 2 µM) | 110 | 113 | 86.1 | 113 | 82.3 | 106 |
| O=C(CCCCCCC(=O)Nc1ccccc1)NO [vorinostat] + COC(=O)c1sccc1S(=O)(=O)Nc1ccc(Nc2ccccc2)cc1OC [GSK0660] (first compound 0.08 µM, partner dose 1 µM) | 89 | 112 | 105 | 96.7 | 118 | 95.1 |
| OCc1c[nH]c2ccccc12 [Indole-3-carbinol] + CC(C)(C)c1cnc(CSc2cnc(NC(=O)C3CCNCC3)s2)o1 [SNS-032] (first compound 0.8 µM, partner dose 0.01 µM) | 96.8 | 102 | 106 | 110 | 115 | 81.5 |
